The values below come from patent CN113461820A (SUZHOU NOVOPROTEIN SCIENT INC, dated 2021).

The target in this assay is T1, CD19 (CD19+靶细胞上: Raji细胞, PBMC中的CD19+B细胞) (human, UniProt P15391 20-556).
T1 sequence (looked up): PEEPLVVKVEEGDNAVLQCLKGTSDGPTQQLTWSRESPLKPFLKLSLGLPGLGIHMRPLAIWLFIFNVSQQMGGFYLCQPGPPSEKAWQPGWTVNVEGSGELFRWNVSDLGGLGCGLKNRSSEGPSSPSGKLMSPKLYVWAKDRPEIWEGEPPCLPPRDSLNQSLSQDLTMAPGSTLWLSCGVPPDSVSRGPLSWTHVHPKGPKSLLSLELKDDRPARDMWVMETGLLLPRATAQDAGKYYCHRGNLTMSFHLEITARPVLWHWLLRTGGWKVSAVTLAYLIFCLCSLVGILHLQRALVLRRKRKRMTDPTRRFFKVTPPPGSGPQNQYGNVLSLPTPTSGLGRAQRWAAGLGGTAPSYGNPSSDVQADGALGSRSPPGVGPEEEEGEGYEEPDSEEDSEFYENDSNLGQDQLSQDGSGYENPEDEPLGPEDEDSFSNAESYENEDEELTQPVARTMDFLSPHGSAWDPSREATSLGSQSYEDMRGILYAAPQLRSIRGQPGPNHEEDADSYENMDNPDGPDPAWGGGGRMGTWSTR
The assay can be described thus: cell-based or functional assay.

B1: 靶向CD3和CD19的双特异抗体SC30A (bispecific antibody)
chain: DIQLTQSPASLAVSLGQRATISCKASQSVDYDGDSYLNWYQQIPGQPPKLLIYDASNLVSGIPPRFSGSGSGTDFTLNIHPVEKVDAATYHCQQSTEDPWTFGGGTKLEIKGGGGSGGGGSGGGGSQVQLQQSGAELVRPGSSVKISCKASGYAFSSYWMNWVKQRPGQGLEWIGQIWPGDGDTNYNGKFKGKATLTADESSSTAYMQLSSLASEDSAVYFCARRETTTVGRYYYAMDYWGQGTTVTVSSGGGGS[letters of about 120 residues omitted]GGGGSGGGGSGGGGSQTVVTQEPSLTVSPGGTVTLTCGSSTGPVTGGNYPNWVQQKPGQAPRGLIGGTKFLAPGTPARFSGSLLGGKAALTLSGVQPEDEAEYYCVLWESNRWVFGGGTKLTVL
In the case of B1, the “报告基因法 (Jurkat-NFAT-Luc, 含有靶细胞) EC50” value was determined as 1.36 ng/mL.
